Consider one molecule from US7939064B2 (priority 2006, dated 2011).

The test has as its system organotypic hippocampal slices.

Regarding `C[C@]12N[C@H](Cc3ccccc31)c1ccccc12` [MK801, dizocilpine, reference compound], the “protection of neuronal injury upon OGD” value was “showed protection of neuronal injury”.
